Target: T1, CREB-regulated transcription coactivator-1 (CRTC1) (mouse (endogenous in primary cortical …, UniProt Q68ED7 1-630))
T1 construct: also called endogenous CRTC1; source: endogenous, mouse primary cortical neurons (12 DIV), formaldehyde-crosslinked, in lysate
T1 sequence (looked up): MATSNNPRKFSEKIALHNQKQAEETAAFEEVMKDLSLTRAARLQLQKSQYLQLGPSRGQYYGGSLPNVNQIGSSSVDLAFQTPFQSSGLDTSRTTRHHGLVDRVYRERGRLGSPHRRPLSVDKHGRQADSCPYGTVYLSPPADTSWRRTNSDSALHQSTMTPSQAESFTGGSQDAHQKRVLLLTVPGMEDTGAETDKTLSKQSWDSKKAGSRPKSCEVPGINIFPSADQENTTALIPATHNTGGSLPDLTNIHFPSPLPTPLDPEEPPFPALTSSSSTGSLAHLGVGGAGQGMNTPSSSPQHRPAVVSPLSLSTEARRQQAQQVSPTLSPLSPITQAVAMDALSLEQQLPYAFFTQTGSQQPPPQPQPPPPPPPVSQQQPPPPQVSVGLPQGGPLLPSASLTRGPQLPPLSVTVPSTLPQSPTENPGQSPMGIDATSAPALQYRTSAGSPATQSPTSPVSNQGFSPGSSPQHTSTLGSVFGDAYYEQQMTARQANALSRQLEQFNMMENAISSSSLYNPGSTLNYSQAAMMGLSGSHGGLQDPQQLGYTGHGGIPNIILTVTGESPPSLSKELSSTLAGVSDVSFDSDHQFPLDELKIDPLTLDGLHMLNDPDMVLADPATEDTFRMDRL
Experiment: co-IP; endogenous proteins; cortical neurons (12 DIV) treated with vehicle or FSK/KCl, crosslinked with 1% formaldehyde, lysed by sonication (50 mM Tris-HCl pH 8, 1% Triton X-100, 100 mM NaCl, 1 mM MgCl2); 2 mg protein immunoprecipitated overnight at 4 °C with anti-CREB or anti-CRTC1, Dynabeads protein G; blots of CRTC1 and pCREB; percent normalised to the maximum immunoprecipitation with the specific antibody in …
Conditions: partners not purified

percent of pCREB co-immunoprecipitated with anti-CRTC1 (FSK/KCl), relative to its immunoprecipitation with anti-CREB: ~50%
B1: cAMP-responsive element-binding protein (CREB) (natural protein)
chain: not shown
modifications: phosphoserine at 133 (blotted as pCREB after FSK/KCl)
notes: Precipitated with an anti-CREB antibody and detected on blots as phosphorylated CREB (Ser133); also called pCREB; endogenous CREB; source: endogenous, mouse primary cortical neurons (12 DIV), formaldehyde-crosslinked, in lysate
